Laboratory results taken from PubChem BioAssay AID1508624 (National Center for Advancing Translational Sciences (NCATS), 2021).
The campaign covered roughly 48,000 compounds. About 120 (0.25%) were called active. Roughly 4% stayed inconclusive and do not appear here. Calls come from the whole dose curve; as a rule, active = well fitted activation curve with a large enough effect; inconclusive = small, poorly fitted or top-dose-only effect, or another doubt; inactive = no such curve, though single readings can be large or run the other way. Some of the results follow.

Assay: Primary qHTS for Identification of Small Molecule Activators of Huntingtin-Antisense Promoter Activity; note: nearly all actives have a fitted effect of over 55% in size
Settings: HEK293 HTT-AS promoter firefly luciferase reporter, 24 h; series mostly up to 57.5 µM; activity change, positive = activation: at the top concentration
How it was run: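 Firefly luciferase readout (Dual-Glo, 10 min RT) after 24 h, 37 °C compound exposure (final up to 57.5 uM) of HEK293 reporter cells cultured 24 h beforehand; PTC124 at 50 uM final as control inhibitor; activity scaled vehicle 0%, zero RLU -100%.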

Activity change, positive = activation, inactive:
COc1ccc(NC(=O)N(Cc2nnc3n2CCCCC3)c2ccc(OC)c(Cl)c2)cc1 -8.24%
CCN(CC)S(=O)(=O)c1nnc(NC(=O)COc2cccc(C)c2)s1 -17.1%
CCn1c(=O)cc(OCC(=O)Nc2cc(OC)c(OC)c(OC)c2)c2ccccc21 -13.6%
COCCNC(=O)CSc1nc2ccccc2nc1Cc1ccc(C)cc1 -11.2%
CCOc1ccc(CNC(=O)c2ccc3nc(CC)c(CC)nc3c2)cc1OC 4.91%
CCc1ccc(S(=O)(=O)c2c(C(=O)c3ccc(C)c(C)c3)cnc3ccccc23)cc1 -30.9%
COc1cccc(N2CCN(c3ccc4nnc(CCC(=O)O)n4n3)CC2)c1 2.66%
COc1ccc(CCNC(=O)CCCCCn2c(SCC(N)=O)nc3cc4c(cc3c2=O)OCO4)cc1OC -8.92%
CCCCc1oc2ccc(NS(C)(=O)=O)cc2c1C(=O)c1ccc(OCCCN(CCCC)CCCC)cc1
CCN(CC)S(=O)(=O)c1ccc2c(c1)N(CC(=O)Nc1ccc(F)cc1)C(=O)CO2 -21.9%
Cc1ccc(S(=O)(=O)N2CCCc3cc(NC(=O)c4ccccc4Cl)ccc32)cc1 -28.9%
Cc1ccc(C)c(N(C)C(=O)C2CCN(c3ncnc4c3nc3n4CCCCC3)CC2)c1 -16.3%
O=C(CSc1nc2c([nH]c3ccccc32)c(=O)n1-c1ccc(F)cc1)N1CCCc2ccccc21 -4.77%
CCOC(=O)Cn1c(=O)n(C2CCCCC2)c2nc(-c3ccccc3Cl)nc(C(N)=O)c21 -16.2%
Nc1c(-c2nc(-c3ccc(Cl)cc3)no2)nnn1-c1ccc(C(F)(F)F)c(Cl)c1 -5.38%
COc1cc(NC(=O)c2cc(C3CC3)nc3c2c(C)nn3-c2ccc(C)cc2)cc(OC)c1 -34.9%
Cc1cccc(C)c1OCc1nc2c3cnn(-c4ccccc4Br)c3ncn2n1 -13.6%
CCOC(=O)CC(NC(=O)c1cc2c(=O)n3cccc(C)c3nc2s1)c1ccc(OCC(C)C)c(OC)c1 (centres undefined) -17.5%
COc1ccc(-c2c(C)nn3c(-c4ccccc4)cc(-c4ccccc4)nc23)cc1OC 0.821%
COc1ccc(CCN2C(=O)c3[nH]nc(-c4ccccc4O)c3C2c2ccc(O)c(OC)c2)cc1 (centres undefined) -9.26%
O=C(NC1CCCCC1)c1cc(Nc2ccccc2)nc2ccccc12 -9.35%
COC(=O)c1ccc(NC(=O)CCNS(=O)(=O)c2cccc3nsnc23)cc1 -5.71%
CCC(CC)C(=O)Nc1nnc2n1CCS2 -1.7%
O=C(Cn1c(=O)n(-c2ccccc2)c(=O)c2c3c(sc21)CCCC3)Nc1cccc(F)c1 -6.13%
COc1cccc(Cc2nc3ccccc3nc2SCC(=O)Nc2ccccc2F)c1 -13.6%
CN(C)c1ccc(CNC(=O)c2ccc(NC(=O)c3nsc4ccccc34)cc2)cc1 -44.1%
Cc1cccc(CNC(=O)c2ccc3nc(-c4ccccc4)c(-c4ccccc4)nc3c2)c1 -10.2%
Cc1c(C(=O)NCc2ccccc2Cl)cccc1-n1cnc2cccnc21 -2.62%
Cc1ccc(Nc2cc(-c3cccc(N4C(=O)c5ccccc5C4=O)c3)ncn2)cc1NS(C)(=O)=O -57.7%
CCC1(c2ccccc2)C(=O)NCNC1=O
CC(C)C1N=C2c3ccccc3N=C(SCC(=O)NCc3ccc(F)cc3)N2C1=O (centres undefined) 1.79%
Cc1cccc(NC(=O)Cn2c(=O)n(CCc3ccccc3)c(=O)c3sc4ccccc4c32)c1 23.7%
CCC12CN3CC(C)(CN(C1)C3c1c(C)n(C)c3ccccc13)C2=O (centres undefined) 1.34%
O=C1CC(c2ccccc2)Cc2[nH]c(=O)c(-c3nc(-c4ccc(Cl)c(Cl)c4)cs3)cc21 (centres undefined) -15.3%
COC(=O)C1=C(C)NC(C)=C(C(=O)OC(C)(C)CN(C)CCC(c2ccccc2)c2ccccc2)C1c1cccc([N+](=O)[O-])c1 (centres undefined) -77.1%
CC(C)(C)c1ccc(C(=O)NC2=NC(c3cccc(F)c3)CC(=O)N2)cc1 (centres undefined) -1.43%
Cc1cc(C)c2oc(C(=O)NCCc3ccc(S(N)(=O)=O)cc3)cc(=O)c2c1 20.4%
COc1ccc(Cl)cc1NC(=O)C(=O)NCc1ccc(Cl)cc1 6.16%
CCS(=O)(=O)NCCc1sc2nc(-c3ccc(OC)cc3)nn2c1C -1.64%
C[C@]12CCC(=O)C=C1CC[C@@H]1[C@@H]2CC[C@@]2(C)[C@H]1CC[C@]2(O)C(=O)CO -15%
O=C(CNS(=O)(=O)c1ccc(Br)s1)N1CCN(c2ccc(F)cc2)CC1 -37.2%
COCCNS(=O)(=O)c1cc(-c2nn3c(C)nnc3c3ccccc23)ccc1C -11%
Cc1ccc(NC(=O)N2CCN(C(=O)c3nsc4ccccc34)CC2)cc1C -10.2%
Cc1ccc(C(=O)c2sc(Nc3ccc(F)cc3)c(C#N)c2N)cc1 -0.104%
COc1cccc(NC(=O)CN2C=NS(=O)(=O)c3ccccc32)c1 -9.44%
COc1cccc(-c2nc3c(c(SCC(=O)Nc4cccc(C)c4C)n2)Cc2c(CO)cnc(C)c2O3)c1 -14.2%
Cc1cccc(CCn2c(=O)c3ccccc3n(Cc3ccccc3C)c2=O)c1 -9.26%
COc1ccc2c(c1)c1c(c(=O)n(Cc3ccccc3)c(=O)n1CC(=O)Nc1ccccc1F)n2C -16.7%
CCOC(=O)c1cnc(NCc2ccc(OC)cc2OC)c2ccccc12 -20.6%
CCOc1ccccc1NC(=O)N1CC(C)Oc2ccc(Cl)cc21 (centres undefined) -25.6%
Cc1ccc(OC(=O)CSc2nnc(-c3ccc4c(c3)OCO4)o2)c(C)c1 -34.9%
Cc1cccn2c(=O)cc(COc3ccc(NC(=O)COc4ccc(F)cc4)cc3)nc12 0.0124%
CCOC(=O)C1=C(CN(CC)Cc2ccccc2)NC(=O)NC1c1ccc(OC)cc1 (centres undefined) -9.64%
COC(=O)c1c(-c2ccc(Cl)cc2)noc1N1CCN(c2ccccc2F)CC1 -18.6%
CCCCNC(=O)c1ccc2c(c1)NC(=O)C(C(C)C)N2 (centres undefined) -19%
COc1ccc2c(c1)c1c(c(=O)n(-c3ccc(F)c(Cl)c3)c(=O)n1Cc1ccccc1F)n2C -14.2%
COc1ccccc1NC(=O)C(=O)c1cc(C)n(-c2cc(C)cc(C)c2)c1C 26.5%
N#Cc1c(-n2ncnc2-c2cccc(Cl)c2)sc2c1CCCCC2 -21% [at 11.5 µM, percent change from vehicle, -100% = no light]
O=C1CN(C(=O)c2cccc(Br)c2)C(c2ccccc2)c2cc(Cl)ccc2N1 (centres undefined) -32.7%
CC(NC(=O)CCc1cn(Cc2ccccc2Cl)c2ccccc12)c1ccccc1 (centres undefined) -18.2%
O=C(NCCc1ccccc1)c1ccc(CSc2nc3cccnc3n2Cc2ccccc2)cc1 -6.6%
CC(C)CN(c1ccccc1)S(=O)(=O)c1nnc(NC(=O)C2CCCCC2)s1 -9.47%
O=C(NCCO)C(=O)NCC(c1ccc2c(c1)OCO2)N1CCOCC1 (centres undefined) -0.0745%
COc1ccc(/C=C/c2nc(C#N)c(N3CCC(C(N)=O)CC3)o2)cc1OC -12%
Cc1ccc(-c2nc(CS(=O)(=O)CC(=O)NC(C)CCc3ccccc3)c(C)o2)cc1 (centres undefined) -29.8%
O=C(CCS(=O)(=O)c1ccccc1)N(Cc1cccnc1)c1nc2c(F)cccc2s1 8.78%
COc1ccc(C(CC(=O)Nc2ccccn2)N2Cc3ccccc3C2=O)cc1OC (centres undefined) -16.8%
CCc1ccccc1NC(=O)Cn1nnc(C(=O)NCc2ccco2)c1N -18.5%
CCOC(=O)c1nnc2c(-c3ccc(Cl)cc3)c(C)nn2c1N -0.0851%
CCOCCCNC(=O)c1ccc(-c2nc(CS(=O)(=O)c3ccccc3)c(C)o2)cc1 -18.4%
CNC(=O)C1CCCN(c2nnc(C)c3c(C)n(-c4ccccc4)nc23)C1 (centres undefined) -5.96%
CCOC(=O)C1CCN(c2cc3c(cc2NC(=O)c2ccccc2Cl)n(C)c(=O)n3C)CC1 -29.7%
O=C(O)CCc1ccc(-c2ccc(Br)cc2)n1-c1ccccc1O -16%
CCCCN(CC)CCNC(=O)Cn1cnc2sc(C)c(S(=O)(=O)N3CCN(c4ccccc4OC)CC3)c2c1=O 9.19%
CC(C)Cc1nn2cc(-c3cccc(Br)c3)nc2s1 -32.2%
CCOc1ccc(N2CC(c3nc4ccccc4n3CCOc3ccc(OC)cc3)CC2=O)cc1 (centres undefined) -22.4%
O=C(Nc1ccc(F)c(Cl)c1)c1cc(S(=O)(=O)NCc2ccc3c(c2)OCO3)ccc1F -30.6%
Cc1cc2nc(-c3ccc(NC(=O)c4ccc(OCC(C)C)cc4)cc3)oc2cc1C 0.915%
CCOc1cccc2sc(N(Cc3cccnc3)C(C)=O)nc12 -22%
O=C(c1ccccc1)N1CCC(c2nc3ccccc3o2)CC1 -17.9%
CN(C)CCC=C1c2ccccc2COc2ccc(CC(=O)O)cc21 8.53%
COc1ccc(CCNC(=O)c2cnn(-c3cccc(C)c3)c2C2CCNCC2)cc1OC -13.1%
CN1C(=O)Cc2cc(S(=O)(=O)CCC(=O)Nc3ccc(Cl)cc3)ccc21 -8.48%
CC(=O)c1ccc(NC(=O)c2cc3c([nH]c2=O)CC(c2ccccc2)CC3=O)cc1 (centres undefined) -10.1%
CCOc1ccc2c(c1)c(=O)c(C(=O)c1ccccc1)cn2Cc1ccccc1F -14.1%
COc1ccc(OC)c(CNS(=O)(=O)c2cc(-c3onc(C)c3C)ccc2C)c1 -25.6%
CCN(CC)C(=O)c1sc2c(c1C)c(=O)n(-c1ccc(C)c(C)c1)c(=O)n2CC(=O)Nc1ccc(OC)cc1OC -21.6%
Cc1cc(F)ccc1NC(=O)CCS(=O)(=O)c1cc2c3c(c1)CCN3C(=O)CC2 -1.54%
CCS(=O)(=O)N1CC(=O)N(c2cc(C)cc(C)c2)C(C)(C(=O)NC2CCCCC2)C1 (centres undefined) -4.18%
Cc1cc(C)n2c(Nc3ccc4c(c3)OCCO4)c(-c3ccccc3)nc2n1 -8.84%
COc1ccc(N2CCN(CCCNC(=O)c3nnc(Cc4ccccc4Cl)o3)CC2)cc1 -25%
COc1ccc(/C=C/C(=O)Nc2cc(-c3nc4ccccc4o3)ccc2OC)cc1 -16.9%
CC(=O)c1ccc(NC(=O)CSc2nnc(-c3ccncc3)n2-c2ccccc2)cc1 -9.14%
Cc1ccc(S(=O)(=O)c2[nH]c(-c3ccccc3)nc2SC(C)C(=O)O)cc1 (centres undefined) -7.12%
